# Source: the supplement of paper PMC8728848
# Some of the results follow.
# B1: Epa10 (protein)
# chain: MNEKIFRYLTLLFLFELARSLPVEDKLNIKKVFEKRAVDFTPFAHYPRPEGCSSPPNSVSVGLHMNLYNYPYLYVKPSTKGMFTNDTNSDADGETDGDSAGGIEGRAGQCWNPEYQDPNFPRFGYKQYGEFGASDNVNGDISWDHNEFTEGCKPVLAALPPGYNYPDEITFSNFTMVLSGYFKPKTSGVYKFELKADDFILFNFGAKNAFECCNREESIDNFGPYVAYAMWPNQADQELEVYLFEDSYYPLRLFYNNRDYHSKFKIGFYPPGQTTITFDFDGYLFMLDDTGNECRDSIRYRTVCDDKVVDDTTYSTRYSTSMVPGGGSDVITIYYIRMKCEEEDCLGQWDPINNVCYSPDDCADDGGYWNGQMCDQSCKLEGGIVNPDTGDCDKSCIESGGFLDENGNCDTTCRDDGGMLVEGQCDYQCKEAGGILVGDHCDTTCVDSGGKLNEDGTCDHSCRDQGGQLDENGECDTSCKDSGGMLIEGECDTSCKDEGGQLDDNNECINHCKDQGGIIDENGNCDTSCKDSGGKLDESGACDTSCRDDGGIIDENGNCNTTCRDDGGIIVGDHCDTSCRDAGGILIEDHCDTTCRDSGGKLNEDGTCDHSCRDQGGQLDENGKCDYSCKNGGGKLDEDGNCDMSCKENGGKLDENGDCDLSCKEDGGKLDGNGDCDYSCKEEGGVIDESGNCNTTCKDSGGQIIDGECNYGCIEVGGVVIDGECDTSCIDSGGILDGDGNCDRSCIESGGVLEDGACNTTCRDSGGQLNVDGTCDTSCRDDGGMLVEGQCDYQCKEAGGILEDGECVFPPTSSSTSETSSTTDQSSLQSDDSSMESSSTPMDSSTIESSSSEIITSESESESVPIASSSSEVMTSESESESIPILTSSSEIPIASSSSEIPVASSSSEIIIPESESESVPVASSSSEIPIASSSSEIPVASSSSEIPVASSSSEIIIPESESESIPIESTSSEAVSSRSESDSSYPTPTPTTTTITTWPNPIQPTTSNSSPIVSSSTETPGIAESSSRISDLESSRRTSILGDDRTRTRTTITSTITEDGQIITITTTVTGFVPEPTGETEGNGSDDENPENPIENNTDENEFLDPEFTDDIPDDPAGPEDNGNGPVNPEQGNDNDPVNLEDSGNNGAVNPEQAPVNDEDNGGNDPVNPEQDNNNGPANPGQDSTNGSGNSDQIDNNPPTPEENAGDGNSNGNDPADPSRRTSILGDERTRASPGGTSQPTGANGNVNGNSPGANVNGGGTGNSNNNNNNNNNNNNGNAPNGGDGSNGDANQGPSRRTSLLGDERTRAGQAAPTGGSSPDNGIAGDTSNNGGAIVSQQVDDGGAGSPRRTSILGDVRSRTTLNGEVLNFEGSGVRRAVAGNLALPLMMVGLVFNL
# Experiments:
# Test in all cases: glycan array binding signal (z-score within array); higher = stronger binding
# Details in all cases: glycan notation: IUPAC condensed, linker removed
# [1] = target: Neu5Ac(a2-6)Gal(b1-4)GlcNAc(b1-2)Man(a1-3)[Man(a1-6)]Man(b1-4)GlcNAc(b1-4)GlcNAc
# Method in brief: (§1)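 The Consortium for Functional Glycomics database supplied 3228 glycan arrays, of which those lacking an available protein sequence were dropped. The binding signal, a within-array Z-score, was averaged across arrays of the same protein sequence and across linkers. Negative scores can be read as non-binding.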
# [2] = target: Neu5Ac(a2-6)Gal(b1-4)GlcNAc(b1-2)Man(a1-3)[Neu5Ac(a2-3)Gal(b1-4)GlcNAc(b1-2)Man(a1-6)]Man(b1-4)GlcNAc(b1-4)GlcNAc
# Method in brief: as §1
# [3] = target: Neu5Ac(a2-6)Gal(b1-4)GlcNAc(b1-2)Man(a1-3)[Neu5Ac(a2-6)Gal(b1-4)GlcNAc(b1-2)Man(a1-6)]Man(b1-4)GlcNAc(b1-4)GlcNAc
# Method in brief: as §1
# [4] = target: Neu5Ac(a2-6)Gal(b1-4)GlcNAc(b1-2)Man(a1-3)[Neu5Ac(a2-6)Gal(b1-4)GlcNAc(b1-2)Man(a1-6)]Man(b1-4)GlcNAc(b1-4)[Fuc(a1-6)]GlcNAc
# Method in brief: as §1
# [5] = target: Neu5Ac(a2-6)Gal(b1-4)GlcNAc(b1-2)Man(a1-6)Man(b1-4)GlcNAc(b1-4)GlcNAc
# Method in brief: as §1
# [6] = target: Neu5Ac(a2-6)Gal(b1-4)GlcNAc(b1-2)Man(a1-6)[Gal(b1-4)GlcNAc(b1-2)Man(a1-3)]Man(b1-4)GlcNAc(b1-4)GlcNAc
# Method in brief: as §1
# [7] = target: Neu5Ac(a2-6)Gal(b1-4)GlcNAc(b1-2)Man(a1-6)[GlcNAc(b1-2)Man(a1-3)]Man(b1-4)GlcNAc(b1-4)GlcNAc
# Method in brief: as §1
# [8] = target: Neu5Ac(a2-6)Gal(b1-4)GlcNAc(b1-2)Man(a1-6)[Man(a1-3)]Man(b1-4)GlcNAc(b1-4)GlcNAc
# Method in brief: as §1
# [9] = target: Neu5Ac(a2-6)Gal(b1-4)GlcNAc(b1-2)[Neu5Ac(a2-6)Gal(b1-4)GlcNAc(b1-4)]Man(a1-3)[GlcNAc(b1-4)][Neu5Ac(a2-6)Gal(b1-4)GlcNAc(b1-2)[Neu5Ac(a2-6)Gal(b1-4)GlcNAc(b1-6)]Man(a1-6)]Man(b1-4)GlcNAc(b1-4)GlcNAc
# Method in brief: as §1
# [10] = target: Neu5Ac(a2-6)Gal(b1-4)GlcNAc(b1-2)[Neu5Ac(a2-6)Gal(b1-4)GlcNAc(b1-4)]Man(a1-3)[GlcNAc(b1-4)][Neu5Ac(a2-6)Gal(b1-4)GlcNAc(b1-4)Man(a1-6)]Man(b1-4)GlcNAc(b1-4)GlcNAc
# Method in brief: as §1
# [11] = target: Neu5Ac(a2-6)Gal(b1-4)GlcNAc(b1-2)[Neu5Ac(a2-6)Gal(b1-4)GlcNAc(b1-6)]Man(a1-6)[Neu5Ac(a2-6)Gal(b1-4)GlcNAc(b1-2)Man(a1-3)][GlcNAc(b1-4)]Man(b1-4)GlcNAc(b1-4)GlcNAc
# Method in brief: as §1
# [12] = target: Neu5Ac(a2-6)Gal(b1-4)GlcNAc(b1-3)Gal(b1-3)GlcNAc
# Method in brief: as §1
# [13] = target: Neu5Ac(a2-6)Gal(b1-4)GlcNAc(b1-3)Gal(b1-4)GlcNAc
# Method in brief: as §1
# [14] = target: Neu5Ac(a2-6)Gal(b1-4)GlcNAc(b1-3)Gal(b1-4)GlcNAc(b1-2)Man(a1-3)[Neu5Ac(a2-6)Gal(b1-4)GlcNAc(b1-3)Gal(b1-4)GlcNAc(b1-2)Man(a1-6)]GalNAc
# Method in brief: as §1
# [15] = target: Neu5Ac(a2-6)Gal(b1-4)GlcNAc(b1-3)Gal(b1-4)GlcNAc(b1-3)Gal(b1-4)GlcNAc
# Method in brief: as §1
# [16] = target: Neu5Ac(a2-6)Gal(b1-4)GlcNAc(b1-3)Gal(b1-4)GlcNAc(b1-3)Gal(b1-4)GlcNAc(b1-2)Man(a1-3)[Neu5Ac(a2-6)Gal(b1-4)GlcNAc(b1-3)Gal(b1-4)GlcNAc(b1-3)Gal(b1-4)GlcNAc(b1-2)Man(a1-6)]GalNAc
# Method in brief: as §1
# [17] = target: Neu5Ac(a2-6)Gal(b1-4)GlcNAc(b1-3)Gal(b1-4)GlcNAc(b1-3)GalNAc
# Method in brief: as §1
# [18] = target: Neu5Ac(a2-6)Gal(b1-4)GlcNAc(b1-3)Gal(b1-4)GlcNAc(b1-3)[Neu5Ac(a2-6)Gal(b1-4)GlcNAc(b1-3)Gal(b1-4)GlcNAc(b1-6)]GalNAc
# Method in brief: as §1
# [19] = target: Neu5Ac(a2-6)Gal(b1-4)GlcNAc(b1-3)Gal(b1-4)GlcNAc(b1-6)[Gal(b1-3)]GalNAc
# Method in brief: as §1
# [20] = target: Neu5Ac(a2-6)Gal(b1-4)GlcNAc(b1-3)Gal(b1-4)[Fuc(a1-3)]GlcNAc(b1-3)Gal(b1-4)[Fuc(a1-3)]GlcNAc
# Method in brief: as §1
# [21] = target: Neu5Ac(a2-6)Gal(b1-4)GlcNAc(b1-3)GalNAc
# Method in brief: as §1
# [22] = target: Neu5Ac(a2-6)Gal(b1-4)GlcNAc(b1-3)[Neu5Ac(a2-6)Gal(b1-4)GlcNAc(b1-6)]GalNAc
# Method in brief: as §1
# [23] = target: Neu5Ac(a2-6)Gal(b1-4)GlcNAc(b1-6)GalNAc
# Method in brief: as §1
# [24] = target: Neu5Ac(a2-6)Gal(b1-4)GlcNAc(b1-6)[Gal(b1-3)GlcNAc(b1-3)]Gal(b1-4)Glc
# Method in brief: as §1
# [25] = target: Neu5Ac(a2-6)Gal(b1-4)GlcNAc(b1-6)[Gal(b1-3)]GalNAc
# Method in brief: as §1
# [26] = target: Neu5Ac(a2-6)Gal(b1-4)GlcNAc6S
# Method in brief: as §1
# [27] = target: Neu5Ac(a2-6)GalNAc
# Method in brief: as §1
# [28] = target: Neu5Ac(a2-6)GalNAc(b1-4)GlcNAc
# Method in brief: as §1
# [29] = target: Neu5Ac(a2-6)GalNAc(b1-4)GlcNAc6S
# Method in brief: as §1
# [30] = target: Neu5Ac(a2-6)GlcNAc(b1-4)GlcNAc
# Method in brief: as §1
# [31] = target: Neu5Ac(a2-6)GlcNAc(b1-4)GlcNAc(b1-4)GlcNAc
# Method in brief: as §1
binder,measurement,setting,value
B1,glycan array binding signal (z-score),[1],-0.263
same,glycan array binding signal (z-score),[2],-0.177
same,glycan array binding signal (z-score),[3],-0.231
same,glycan array binding signal (z-score),[4],-0.24
same,glycan array binding signal (z-score),[5],-0.104
same,glycan array binding signal (z-score),[6],-0.232
same,glycan array binding signal (z-score),[7],-0.21
same,glycan array binding signal (z-score),[8],-0.281
same,glycan array binding signal (z-score),[9],-0.211
same,glycan array binding signal (z-score),[10],-0.17
same,glycan array binding signal (z-score),[11],-0.287
same,glycan array binding signal (z-score),[12],-0.258
same,glycan array binding signal (z-score),[13],-0.253
same,glycan array binding signal (z-score),[14],0.026
same,glycan array binding signal (z-score),[15],-0.248
same,glycan array binding signal (z-score),[16],-0.016
same,glycan array binding signal (z-score),[17],-0.163
same,glycan array binding signal (z-score),[18],-0.177
same,glycan array binding signal (z-score),[19],0.429
same,glycan array binding signal (z-score),[20],-0.139
same,glycan array binding signal (z-score),[21],-0.081
same,glycan array binding signal (z-score),[22],-0.239
same,glycan array binding signal (z-score),[23],-0.204
same,glycan array binding signal (z-score),[24],-0.227
same,glycan array binding signal (z-score),[25],0.906
same,glycan array binding signal (z-score),[26],-0.208
same,glycan array binding signal (z-score),[27],-0.217
same,glycan array binding signal (z-score),[28],-0.281
same,glycan array binding signal (z-score),[29],-0.254
same,glycan array binding signal (z-score),[30],-0.278
same,glycan array binding signal (z-score),[31],-0.206
